Further values from the same series stand in other lists.
What was measured:
Test in all cases: concentration in plasma after dosing
Rat [1] = conditions: dosed: Isoeugenol, 17 mg/kg, iv, Male, F344/N
Rat [2] = conditions: dosed: Isoeugenol, 70 mg/kg, oral, Female, F344/N
Rat [3] = conditions: dosed: Isoeugenol, 17 mg/kg, iv, Male, F344/N; remark: listed apart in the source
Rat [4] = conditions: dosed: Isoeugenol, 17 mg/kg, iv, Female, F344/N
Rat [5] = conditions: dosed: Isoeugenol, 17 mg/kg, iv, Male, F344/N; remark: listed apart in the source
Rat [6] = conditions: dosed: Isoeugenol, 140 mg/kg, oral, Female, F344/N
Rat [7] = conditions: dosed: Isoeugenol, 70 mg/kg, oral, Female, F344/N; remark: listed apart in the source
Rat [8] = conditions: dosed: Isoeugenol, 17 mg/kg, iv, Female, F344/N; remark: listed apart in the source
Rat [9] = conditions: dosed: Isoeugenol, 17 mg/kg, iv, Male, F344/N; remark: listed apart in the source
Rat [10] = conditions: dosed: Isoeugenol, 70 mg/kg, oral, Male, F344/N
Rat [11] = conditions: dosed: Perfluorohexane-1-sulphonic acid – potassium salt, 32 mg/kg, oral, Female, Harlan Sprague Dawley
Rat [12] = conditions: dosed: Perfluorohexane-1-sulphonic acid – potassium salt, 32 mg/kg, oral, Male, Harlan Sprague Dawley
Rat [13] = conditions: 3 h; dosed: Perfluorohexane-1-sulphonic acid – potassium salt; 16 mg/kg; oral; Female; Harlan Sprague Dawley
Rat [14] = conditions: dosed: Perfluorohexane-1-sulphonic acid – potassium salt, 4 mg/kg, Female, F344
Rat [15] = conditions: 3 h; dosed: Perfluorohexane-1-sulphonic acid – potassium salt; 16 mg/kg; oral; Female; Harlan Sprague Dawley; remark: listed apart in the source
Rat [16] = conditions: dosed: Perfluorohexane-1-sulphonic acid – potassium salt, 32 mg/kg, oral, Female, Harlan Sprague Dawley; remark: listed apart in the source
Rat [17] = conditions: dosed: Perfluorohexane-1-sulphonic acid – potassium salt, 32 mg/kg, oral, Male, Harlan Sprague Dawley; remark: listed apart in the source
Rat [18] = conditions: dosed: Perfluorohexane-1-sulphonic acid – potassium salt, 4 mg/kg, oral, Female, Harlan Sprague Dawley
Rat [19] = conditions: 24 h; dosed: Perfluorohexane-1-sulphonic acid – potassium salt; 16 mg/kg; oral; Female; F344
Rat [20] = conditions: 24 h; dosed: Perfluorohexane-1-sulphonic acid – potassium salt; 16 mg/kg; oral; Female; Harlan Sprague Dawley
Rat [21] = conditions: dosed: Perfluorohexane-1-sulphonic acid – potassium salt, 4 mg/kg, Female, F344; remark: listed apart in the source
Rat [22] = conditions: 48 h; dosed: Perfluorohexane-1-sulphonic acid – potassium salt; 16 mg/kg; oral; Female; Harlan Sprague Dawley
Rat [23] = conditions: 192 h; dosed: Fluorotelomer alcohol 8+2; 80 mg/kg; oral; Female; Harlan Sprague Dawley
Rat [24] = conditions: 0.5 h; dosed: Fluorotelomer alcohol 8+2; 24 mg/kg; oral; Male; Harlan Sprague Dawley
Rat [25] = conditions: dosed: Fluorotelomer alcohol 8+2, 48 mg/kg, oral, Male, Harlan Sprague Dawley
Rat [26] = conditions: 6 h; dosed: Fluorotelomer alcohol 8+2; 24 mg/kg; oral; Male; Harlan Sprague Dawley
Rat [27] = conditions: dosed: Fluorotelomer alcohol 8+2, 48 mg/kg, oral, Male, Harlan Sprague Dawley; remark: listed apart in the source
Rat [28] = conditions: 12 h; dosed: Fluorotelomer alcohol 8+2; 24 mg/kg; oral; Male; Harlan Sprague Dawley
Rat [29] = conditions: dosed: Fluorotelomer alcohol 8+2, 40 mg/kg, oral, Female, Harlan Sprague Dawley
Rat [30] = conditions: dosed: Fluorotelomer alcohol 8+2, 48 mg/kg, oral, Male, Harlan Sprague Dawley; remark: listed apart in the source
Rat [31] = conditions: dosed: Fluorotelomer alcohol 8+2, 160 mg/kg, oral, Female, Harlan Sprague Dawley
Rat [32] = conditions: dosed: Fluorotelomer alcohol 8+2, 24 mg/kg, oral, Male, Harlan Sprague Dawley

C/C=C/c1ccc(O)c(OC)c1 [Isoeugenol]
Conditions	concentration in plasma [ng/mL]
Rat [1], 1 h	176
Rat [1], 6 h	21.4
Rat [2], 1.5 h	251
Rat [2], 20 min	970
Rat [3], 1.5 h	125
Rat [3], 10 min	4260
Rat [4], 1.5 h	166
Rat [4], 20 min	1800
Rat [5], 0.75 h	405
Rat [5], 3 h	32
Rat [6], 1.5 h	1250
Rat [6], 6 h	499
Rat [7], 1 h	342
Rat [7], 5 h	367
Rat [8], 5 h	30
Rat [8], 5 min	6480
Rat [9], 1 h	216
Rat [9], 2.5 h	64.9
Rat [10], 0.75 h	199
Rat [10], 8 h	100

O=S(=O)([O-])C(F)(F)C(F)(F)C(F)(F)C(F)(F)C(F)(F)C(F)(F)F.[K+] [Perfluorohexane-1-sulphonic acid – potassium salt]
Conditions	concentration in plasma [ng/mL]
Rat [11], 0.25 h	72000
Rat [11], 12 h	151000
Rat [11], 192 h	8830
Rat [12], 0.25 h	47900
Rat [12], 12 h	187000
Rat [12], 528 h	43700
Rat [14], 1 h	41800
Rat [14], 24 h	31300
Rat [14], 1200 h	7110
Rat [16], 1 h	142000
Rat [16], 24 h	81600
Rat [16], 288 h	1160
Rat [17], 1 h	114000
Rat [17], 24 h	178000
Rat [17], 864 h	9990
Rat [18], 3 h	21900
Rat [18], 48 h	13500
Rat [18], 528 h	32.6
Rat [21], 0.25 h	51000
Rat [21], 12 h	22900
Rat [21], 288 h	242

Conditions	concentration in plasma [ng/mL]
Rat [13]	108000
Rat [15]	95500
Rat [19]	143000
Rat [20]	64800
Rat [22]	37300

O=C(O)CCC(F)(F)C(F)(F)C(F)(F)C(F)(F)C(F)(F)C(F)(F)C(F)(F)F [Fluorotelomer acid 7+3]
Conditions	concentration in plasma [ng/mL]
Rat [23]	529
Rat [24]	239
Rat [26]	560
Rat [28]	370

Conditions	concentration in plasma [ng/mL]
Rat [25], 0.5 h	373
Rat [25], 9 h	916
Rat [27], 3 h	1990
Rat [27], 5 min	0.916
Rat [29], 0.75 h	1180
Rat [29], 12 h	850
Rat [30], 48 h	905
Rat [30], 192 h	413
Rat [31], 0.5 h	730
Rat [31], 9 h	3340
Rat [32], 5 min	0.605
Rat [32], 9 h	340
